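Dose response: 5 concentrations. Exposure: 48 h. Format: 96-well plates. Endpoint: linear interpolation; highest concentration if not reached. The concentration for 50% growth inhibition is given as GI50. TGI: concentration producing complete growth inhibition.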
System: NCI-H322M lung
Assay: growth of human tumour cells (NCI), 48 h

Structure (SMILES)	TGI	GI50
[B]C(=O)NC(CC(C)C)C(=O)NC1c2ccsc2C(=O)C1O (stereo not given) (tested in a mixture with another compound)	> 100 µM	
COc1cc2c(cc1OC)-c1c(c3ccc([N+](=O)[O-])cc3c(=O)n1CCCBr)C2=O	> 100 µM	21.9 µM
COc1ccc(OC/C(N=Cc2cccnc2)=N/NC(=O)c2ccncc2)cc1	> 100 µM	
NCCCSCC(=O)O	> 100 µM	
C/C(=N\O)c1ccc(Nc2cc(-c3ccccc3)nc3c(O)cccc23)cc1	30.5 µM	12.5 µM
O=C(c1ccccc1)C(c1ccccc1)C1(O)C(=O)Nc2ccc(Br)cc21 (stereo not given)	> 100 µM	
ClC1(Cl)C2CCOC21n1cnc2ccccc21 (stereo not given)	> 100 µM	
CCCCCC(=O)OC[n+]1ccc(-c2c(COC(=O)NC(C)C)c(COC(=O)NC(C)C)c3n2CCC3)cc1	> 100 µM	
COc1ccccc1N1C(=O)/C(=C\c2ccccc2)SC1c1cc(OC)c(OC)c(OC)c1 (stereo not given)	> 100 µM	
CNC(=S)c1nnsc1N	> 100 µM	
O=C(Nc1ccccn1)c1cc2c(cc1Cl)Sc1nccn1S2(=O)=O	61.9 µM	
Cc1cccc(C)c1NC(=O)/C(CC(=O)CC(c1ccccc1)c1c(O)c2ccccc2oc1=O)=N/O (stereo not given)	> 100 µM	
Cc1cn(C2CC(/[N+]([O-])=N\Nc3ccc([N+](=O)[O-])cc3)C(CO)O2)c(=O)[nH]c1=O (stereo not given)	> 100 µM	
O=C1COCCN1c1ccc(NCc2cn(Cc3ccc(F)cc3)c3ccccc23)cc1	> 100 µM	8.42 µM
C=C(C=O)[C@@H]1CC=C(C=O)CC1	54.9 µM	21.9 µM
OC1OC2COC(c3ccccc3)OC2C(O)C1O (stereo not given)	> 100 µM	
CC(NC(=O)C1(N)CCCC1)C(=O)O (stereo not given)	> 100 µM	
CCC1(O)CC(c2ccccc2)N(C)C(c2ccccc2)C1 (stereo not given)	> 100 µM	
O=P1(NCCCl)OCCC(OO)N1CCCl (stereo not given)	> 100 µM	
O=C1C=C(NCCc2ccc(O)cc2)C(=O)C=C1NCCc1ccc(O)cc1	> 100 µM	
Cc1ccc(Sc2cc([N+](=O)[O-])cc(Sc3ccc(C)cc3)c2Sc2ccc(C)cc2)cc1	> 100 µM	
NCCCCNCCCNC(=O)c1csc(-c2nc(CCN)sc2Cl)n1	> 100 µM	
Fc1cccc(C2SCc3nc4ccccc4n32)c1 (stereo not given)	> 100 µM	
CC(=O)c1ccc(-c2ccc(C(C)=O)s2)s1	> 100 µM	
CCCCCCCCC[C@@H]1C[C@H](O)[C@H](Cc2ccccc2)N1C(=O)OC(C)(C)C	32.7 µM	
COc1ccc(C(CC(=O)c2ccc(O)cc2)C(C(=O)c2ccc(O)cc2)C(c2ccc(OC)cc2)C2C(=O)NC(=S)NC2=O)cc1 (stereo not given)	45.4 µM	
O=CN/C=C\c1cc(O)ccc1O	> 100 µM	

Structure (SMILES)	TGI	GI50
COc1ccc2c(c1)cn1c3ccc(OC)cc3[nH]c(=O)c21	2.39 µM	0.513 µM
Nc1[nH]nc2c1Cc1c(n(Cc3ccc(Cl)cc3)c3ccccc13)C(=O)N2	27.3 µM	
O=C(O)COc1cccc2ccccc(=O)c12	> 100 µM	
CC(=O)Oc1cc(OC(C)=O)c(OC(C)=O)c2c1CC1C(=O)C3(CCc4ccccc43)C(=O)C1C2 (stereo not given)	> 100 µM	
COC(=O)Cc1c(-c2c(CC(=O)OC)c3ccccc3n2C2OC(COC3OC(COC(C)=O)C(OC(C)=O)C(OC(C)=O)C3OC(C)=O)C(O)C(O)C2O)[nH]c2ccccc12 (stereo not given)	> 100 µM	
FC(F)(F)c1ccc(N=NN2CCCC2)cc1	> 100 µM	
CCN(CC)C(=O)CCNC(C)Cc1c[nH]c2ccccc12 (stereo not given)	> 100 µM	
CCOC(=O)C1=CN(Cc2ccccc2)C2ON=C(c3ccc(Cl)cc3)C2C1 (stereo not given)	> 81 µM	
CN1CCN2CCN(C)CCN(CC1)CC2	> 100 µM	
CC12CCC(C)(c3cc(O)c(O)cc31)c1cc(O)c(O)cc12	44.7 µM	
O=[N+]([O-])c1ccc(N/N=C\c2ccc(O)cc2O)nc1	> 100 µM	0.79 µM
COc1cc(/C=C/C(=O)c2ccc(SC)cc2)cc(OC)c1OC	31.1 µM	17 µM
CN=C(NC#N)NCc1ccccc1	> 100 µM	
FC1(F)SC2CCCCCCCCCCC2C1(F)F (stereo not given)	> 100 µM	
Cc1cc(NS(=O)(=O)c2ccc(N=Nc3c(Nc4ccccc4)nn(-c4ccc(S(=O)(=O)Nc5ccncn5)cc4)c3C)cc2)no1	> 100 µM	
COc1cc(C2C(C(=O)Nc3ccccc3C)=C(C)NC(C)=C2C(=O)Nc2ccccc2C)ccc1O	> 100 µM	
Nc1c(S(=O)(=O)O)cc2c(c1Cl)C(=O)c1ccccc1C2=O	> 100 µM	> 100 µM
COC(=O)c1cccc(COc2ccc([N+](=O)[O-])cc2Cl)c1	> 100 µM	
Oc1ccccc1/C=N/N1C(=S)N(c2ccccc2)C(=Nc2ccccc2)C1=Nc1ccccc1	37 µM	
C=CCOc1ccc2c(c1)CC[C@@H]1[C@@H]2CC[C@]2(C)C(=O)/C(=N/O)C[C@@H]12	> 88.4 µM	8.78 µM
OC1/C(=C/c2ccccc2)CNC/C1=C\c1ccccc1 (stereo not given)	> 100 µM	
COc1cc(Nc2nccc(-c3cnn4ncccc34)n2)cc(OC)c1	2.84 µM	0.0629 µM
O=C1CSC2(CC(/C=C/c3ccccc3[N+](=O)[O-])=NN2c2cccc(S(=O)(=O)O)c2)N1c1nc2ccccc2s1 (stereo not given)	> 75 µM	
COC(=O)CC(c1ccccc1)C(C#N)(OP1(=O)OC(c2ccccc2)C(C)N1C)c1ccccc1 (stereo not given)	> 100 µM	
CC(=O)O[C@H]1CC[C@@]2(C)[C@@H](CC[C@@H]3[C@@H]2CC(=O)[C@@]2(C)[C@H]3C[C@@H]3CC(C)=CC(=O)[C@@H]32)C1	> 100 µM	
COc1cc(-c2nc3cc(Cl)c(Cl)cc3[nH]2)ccc1OCC(=O)N=Nc1c(O)[nH]c2ccccc12	2.61 µM	1.11 µM
COc1ccc(Nc2cnc3cc(N)ccc3n2)cc1OC	> 100 µM	

From PubChem BioAssay (NCI)
